# Data from PubChem BioAssay (NCATS).
# Inconclusive results, whose numbers are uncertain, are shown with a selection of clear calls. No potency is given beside an inconclusive call; the fits are too rough. Some structures have more than one record in an assay (separate samples or runs), and their calls can disagree. The source made the active and inactive calls. Calls follow the shape of the dose curve; as a rule, active = well fitted inhibition curve with a large enough effect; inconclusive = small, poorly fitted or top-dose-only effect; inactive = no such curve, though single readings can be large or run the other way.
# Assay: NS1 protein of Zika virus - qHTS assay to identify small molecule inhibitors in human HEK 293 cells (AID 1347053); also: nearly all actives have a fitted effect of over 55% in size;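 as to activity change, negative = inhibition: plate controls were infected untreated cells for no effect and uninfected cells for full effect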
# Details: HEK293 ZIKV MR766 infection, NS1 TR-FRET, 24 h; series mostly up to 46.1 µM; activity change, negative = inhibition: at the top concentration
# Source text: National Center for Advancing Translational Sciences [NCATS]
# Johns Hopkins University School of Medicine
# The non-structural 1 (NS1) protein of zika virus is known to associate with the viral replication complex. This cell-based TR-FRET ZIKV NS-1 assay measures the increased NS-1 protein in human HEK 293 cells after a 24-hour Zika virus infection by a TR-FRET assay readout. A decrease in the Time-resolved fluorescence energy transfer (TR-FRET) signal in this assay by small molecule treatment indicates an inhibitory effect of the small molecule on the expression of Zika virus NS1 correlating with Zika virus replication.
# HEK 293 cells were cultured in EMEM (ATCC, Cat. # 30-2003) medium with 10% fetal bovine serum (GE healthcare Life Sciences, Cat. # SH30071.03), and 1% Pen/Strep (Gibco, Cat. # 15140-122). Cells were seeded in the assay plate and incubated at 37 C with 5% CO2 for 20 hours. Compounds were added to cells and incubated for one hour before addition of ZIKV MR766 strain solution to cells (MOI = 0.5). After an incubation at 37 C for 24 hours, the reagent mixture of TR-FRET ZIKV NS1 assay using two anti-ZIKV NS1 antibodies was added to assay plates. The TR-FRET signals in assay plates were measured using an Envision plate reader (PerkinElmer). Data were normalized by using the cell-containing wells without ZIKV as a negative control (0% NS-1) and wells containing ZIKV infected cells as a positive control (100% NS-1 level).
# Potency is read from the fitted curve at half-maximal effect; tags tell the direction and shape of the fitted curve.
SMILES,Potency,"activity change, negative = inhibition"
Cc1sc2c(c1C)C(c1ccc(Cl)cc1)=N[C@@H](CC(=O)OC(C)(C)C)c1nnc(C)n1-2,"inconclusive [inhibitor, single point]",–
CC(C)(C)NCC(O)c1cc(Cl)c(N)c(C(F)(F)F)c1 (stereo not given),–,inactive: 0.714%
CCCN(CCC)c1c([N+](=O)[O-])cc(S(N)(=O)=O)cc1[N+](=O)[O-],"inconclusive [inhibitor, partial curve, poor fit]",–
COc1ccccc1N1CCNCC1,inactive,–
CCCCCCCCCCCCCCCC[N+](C)(C)C,"inconclusive [inhibitor, single point]",–
COc1ccc(Cc2nccc3cc(OC)c(OC)cc23)cc1OC,"inconclusive [inhibitor, single point]",–
c1ccc(CCCN2CCN(CCOC(c3ccccc3)c3ccccc3)CC2)cc1,"inconclusive [inhibitor, single point]",–
CN(C)CCc1c[nH]c2cccc(OP(=O)(O)O)c12,–,inactive: -19.2% [at 92.8 µM]
C=CCON=C(C[C@H]1O[C@@H]2O[C@]3(C)CC[C@@H]4[C@H](C)CC[C@@H]([C@H]1C)[C@@]24OO3)[C@H]1O[C@@H]2O[C@]3(C)CC[C@H]4[C@H](C)CC[C@@H]([C@@H]1C)[C@@]24OO3,"inconclusive [inhibitor, single point]",–
CC(=O)[O][Hg][c]1ccccc1,"inconclusive [inhibitor, full curve, poor fit]",–
O=C(Nc1ccncc1)C(=O)c1cn(Cc2ccc(Cl)cc2)c2ccccc12,active: 0.0093 µM,–
CC[C@@]1(O)C(=O)OCc2c1cc1n(c2=O)Cc2cc3ccccc3nc2-1,active: 0.0118 µM,–
C=C(C)[C@H]1Cc2c(ccc3c2O[C@@H]2COc4cc(OC)c(OC)cc4[C@@H]2C3=O)O1,"inconclusive [inhibitor, single point]",–
CC=C(C)C(=O)O[C@H]1C(C)=C2[C@@H]3OC(=O)[C@@](C)(O)[C@@]3(O)[C@@H](OC(=O)CCC)C[C@](C)(OC(C)=O)[C@@H]2[C@@H]1OC(=O)CCCCCCC,active: 0.332 µM,–
CC(C)[C@]12O[C@@H]1[C@@H]1O[C@]13[C@]1(O[C@H]1C[C@@H]1C4=C(CC[C@@]13C)C(=O)OC4)[C@H]2O,"inconclusive [inhibitor, full curve, poor fit]",–
CCCCCC[C@H]1C(=O)O[C@H](C)[C@H](NC(=O)c2cccc(NC=O)c2O)C(=O)O[C@@H](C)[C@@H]1OC(=O)CC(C)C,active: 2.96 µM,–
CC1(N2CCC(n3c([C@@H]4CCCNC4)nc4ccccc43)CC2)CCCCCCC1,active: 20.9 µM,–
C#C[C@]1(O)C=C[C@@H]2[C@@H]3CCC4=CC(=O)CC[C@@H]4[C@H]3CC[C@@]21CC,–,inactive: 4.82%
C[N+](C)(C)CCOC(=O)C(O)(c1ccccc1)c1ccccc1,–,inactive: -21.7%
Cc1ccc([N+](=O)[O-])[c]2c1[O][Hg]2,"inconclusive [inhibitor, partial curve, poor fit]",–

SMILES,Potency,"activity change, negative = inhibition"
CCC(=O)OC1(c2ccccc2)CCN(C)CC1,–,inactive: -3.24% [at 92.8 µM]
CC(O)(CS(=O)(=O)c1ccc(F)cc1)C(=O)Nc1ccc(C#N)c(C(F)(F)F)c1 (stereo not given),inactive,–
O=S(=O)(CC1CS1)c1ccc(Oc2ccccc2)cc1 (stereo not given),–,inactive: 6.95%
O=[N+]([O-])O[C@H]1CO[C@H]2[C@@H]1OC[C@H]2O[N+](=O)[O-],–,inactive: 11.9%
N[C@@H](Cc1ccc(N(CCCl)CCCl)cc1)C(=O)O,"inconclusive [inhibitor, single point]",–
C[C@@H]1[C@@H](C(=O)C[C@H]2O[C@@H]3O[C@]4(C)CC[C@@H]5[C@H](C)CC[C@@H]([C@H]2C)[C@@]35OO4)O[C@@H]2O[C@]3(C)CC[C@H]4[C@H](C)CC[C@@H]1[C@@]24OO3,–,inactive: 1.26%
COc1ccc(C(=O)N2CCCC2=O)cc1,"inconclusive [inhibitor, single point]",–
O=c1[nH]c2ccccc2n1C1CCN(CCCC(c2ccc(F)cc2)c2ccc(F)cc2)CC1,"inconclusive [inhibitor, single point]",–
CN1C[C@H](CNC(=O)OCc2ccccc2)C[C@@H]2c3cccc4c3c(cn4C)C[C@H]21,"inconclusive [inhibitor, partial curve, poor fit]",–
Cc1ccc(-c2nc3ccc(C)cn3c2CC(=O)N(C)C)cc1,–,inactive: -7.59%
CCCCCCCCCCCC[N+](C)(C)CCOc1ccccc1,"inconclusive [inhibitor, single point]",–
C[C@H]1CCCC=CC2C[C@H](O)C[C@@H]2[C@H](O)C=CC(=O)O1 (stereo not given in full),–,inactive: -117%
CC[C@@H]1[C@@H](C)O[C@@](O)([C@@H](C)[C@H](O)[C@H](C)[C@H]2OC(=O)C=CC=C[C@@H](C)[C@@H]([C@@H](C)[C@@H](O)[C@H](C)[C@@]3(O)C[C@H](O[C@H]4C[C@H](O)[C@H](O)[C@H](C)O4)[C@H](CC)[C@@H](C)O3)OC(=O)C=CC=C[C@@H]2C)C[C@H]1O[C@H]1C[C@H](O)[C@H](O)[C@H](C)O1,active: 1.05 µM,–
CC[C@H]1C=CC=CC[C@@H](C)[C@H](O)[C@@](C)(O)C(=O)[C@@H](C)[C@H](O)[C@@H](C)C(=O)[C@@H](C)[C@H](O)[C@@H](C)C=CC(=O)O[C@@H]2[C@@H](C)[C@H](CC1)O[C@]1(CC[C@H](C)[C@H](C[C@@H](C)O)O1)[C@H]2C,active: 18.7 µM,–
COC[C@H]1OC(=O)c2coc3c2[C@@]1(C)C1=C(C3=O)[C@@H]2CC[C@H](O)[C@@]2(C)C[C@@H]1OC(C)=O,"inconclusive [inhibitor, single point]",–
C[C@@H]1CN(C2CCC(C#N)(c3ccc(F)cc3)CC2)CC[C@]1(C(=O)O)c1ccccc1 (stereo not given in full),–,inactive: 3.56%
O=C(O)C(=O)c1cn(Cc2ccccc2)c2ccc(-c3ccc(OC(F)(F)F)cc3)cc12,"inconclusive [inhibitor, single point]",–
C=C1CC[C@@]2(O)[C@H]3Cc4ccc(O)c5c4[C@@]2(CCN3CC2CC2)[C@H]1O5,"inconclusive [inhibitor, partial curve, poor fit]",–
CN1[C@H]2CC(O)C[C@H]1[C@H]1O[C@H]12 (stereo not given in full),"inconclusive [inhibitor, single point]",–
C[CH2][Hg][S]c1ccccc1C(=O)O,"inconclusive [inhibitor, single point]",–
